From PubChem BioAssay AID686970 (National Center for Advancing Translational Sciences (NCATS), 2013)
Out of some 360,000 compounds screened, about 6,000 (1.7%) were called active. The inconclusive results got no clear call from the source; some entries with a clear call stand among them for comparison. The call rests on the fitted dose curve; in most records, active means well fitted cell-killing curve with a large enough effect; inconclusive means small, poorly fitted or top-dose-only effect, or effect the other way; inactive means flat fitted curve, though single readings scatter. No potency is given beside an inconclusive call; the fits are too rough.
Potency means the concentration at half of the fitted maximal effect; tags describe the fitted curve by direction and shape.

Assay: qHTS for induction of synthetic lethality in tumor cells producing 2HG: qHTS for the HT-1080-NT fibrosarcoma cell line;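 further: NT is the 2HG producing partner of a matched IDH1 knockdown line; nearly all actives have a fitted effect of over 55% in size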;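 on activity, negative = less viability: 0% = DMSO-treated cells and -100% = media-only wells without cells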
Details: HT-1080-NT fibrosarcoma viability, CellTiter-Glo ATP luminescence, 48 h; activity, negative = less viability: at 46.1 µM (top of the series) unless noted
Summary of the method: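 Viability of the 2HG-overproducing fibrosarcoma line after 48 hours of compound exposure at 37 degrees C was determined by luminescence with CellTiter-Glo, and concentration-effect curves were then fitted and categorized.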
In the case of `O=C1C(=O)c2ccc(-c3ccccc3)cc2-c2ccccc21`, the Potency is reported as active: 3.66 µM. For `O=C(c1ccco1)N1CCN(C2CN(C3CCCCC3)S(=O)(=O)C2)CC1` (stereo unspecified), the Potency was inconclusive [rising, partial curve, poor fit]. For `CC(C)c1ccc(NC2CCCN(C(=O)CC3CCCC3)C2)cc1` (stereo unspecified), the Potency was inconclusive [cytotoxic, single point]. With `COc1ccc(C(O)Cn2c(=N)n(CCCN(C)C)c3ccccc32)cc1` (stereo unspecified) the “activity, negative = less viability” value was inactive: -12.3%. In the case of `CC(c1ccccc1)C(CC(=O)O)C(=O)NC1CCCCC1` (stereo unspecified), the Potency is reported as inconclusive [rising, single point]. In the case of `C=C(CN(C)C)C(=O)c1ccc(C)cc1C`, the Potency is reported as inconclusive [cytotoxic, single point]. With `C=CC[n+]1ccc(/C=C2\C=Cc3cc(C)ccc3N2CC)c2ccccc21` the Potency was active: 5.8 µM. For `Cc1c(N2C(=O)/C(=C/C3CC=CCC3)SC2=S)c(=O)n(-c2ccccc2)n1C` (stereo unspecified), the Potency was inconclusive [cytotoxic, partial curve]. For `CC(C)(C)C1CCC2(CC1)NC(=S)N(c1ccccc1)N2` (stereo unspecified), the Potency was inconclusive [cytotoxic, single point]. With `Cc1ccc(Oc2c(C(N)=O)cc([N+](=O)[O-])cc2[N+](=O)[O-])cc1` the Potency was inconclusive [cytotoxic, single point]. In the case of `CC(=O)Nc1nc2ccccc2n1Cc1ccc(Cl)cc1`, the Potency is reported as inconclusive [cytotoxic, partial curve]. In the case of `CCOC(=O)n1c2ccccc2c(=O)n1CCO`, the Potency is reported as inconclusive [rising, partial curve, poor fit]. With `Cc1ccc(C)c(NC(=O)CCc2c(C)nn(-c3ccc(N4CCCCC4)nn3)c2C)c1` the “activity, negative = less viability” value was inactive: 1.75%. With `O=C(/C=C/c1ccccc1)Nc1ccc(Br)cn1` the Potency was active: 6.51 µM. In the case of `CN(C)S(=O)(=O)c1ccc(C(=O)NCCc2ccco2)cc1`, the activity, negative = less viability is reported as inconclusive: 2.35% [cytotoxic]. In the case of `N#CC(c1ccc(Cl)nn1)c1ccc(Cl)cc1Cl` (stereo unspecified), the Potency is reported as inconclusive [cytotoxic, single point]. For `COc1ccc(N=Nc2ccc(O)c3ncccc23)cc1`, the Potency was inconclusive [cytotoxic, full curve]. In the case of `O=C(NC1CCCC1)C(c1ccncc1)N(Cc1ccco1)C(=O)c1ccc(-c2ccccc2)[nH]1` (stereo unspecified), the Potency is reported as inconclusive [cytotoxic, partial curve]. With `COc1ccc(CNCCC(c2ccc(OC(C)C)cc2)c2ccccc2OC)cc1OC` (stereo unspecified) the Potency was active: 14.6 µM. In the case of `CC(OC(=O)Cn1cnc2c1c(=O)n(C)c(=O)n2C)C(=O)NCc1ccccc1` (stereo unspecified), the “activity, negative = less viability” value is reported as inactive: 1.1%. With `O=C(CC(=O)c1ccccc1O)c1ccc(F)cc1` the Potency was inconclusive [cytotoxic, single point]. In the case of `O=C(CSc1ncccc1-c1nc2ccccc2[nH]1)NCc1ccco1`, the Potency is reported as inconclusive [cytotoxic, single point]. For `O=C(/C=C/c1ccccc1Cl)Nn1cnc2ccccc2c1=O`, the Potency was inconclusive [cytotoxic, single point]. With `CCOC(=O)Nc1ccc2c(c1)N(C(=O)CN1CCN(C)CC1)c1ccccc1S2` the Potency was inconclusive [cytotoxic, single point]. With `COc1ccc(C(=O)Nc2ccc(N3CCOCC3)cc2)cc1OC` the Potency was inconclusive [cytotoxic, single point]. With `Cc1cc(F)ccc1S(=O)(=O)Nc1ncnc2scc(-c3ccc(F)cc3)c12` the Potency was inconclusive [cytotoxic, partial curve]. For `O=C(/C=C/c1ccccc1)N1CCN(c2ccccn2)CC1`, the Potency was inconclusive [rising, single point]. For `Cc1ccc(C(=O)/C=C/c2ccc(-c3ccccc3[N+](=O)[O-])o2)cc1`, the Potency was inconclusive [cytotoxic, single point]. For `Cc1cc(NC(=O)c2ccc(NC(=O)C(C)Oc3ccccc3)cc2)no1` (stereo unspecified), the “activity, negative = less viability” value was inactive: -23.1%. With `Cc1ccc2nc(Nc3ccc4[nH]c(=O)[nH]c4c3)c(-n3nc(C)cc3C)nc2c1` the Potency was inconclusive [cytotoxic, single point]. For `CC(C)(C)C(=O)NCCCc1nc2ccccc2n1CCCOc1ccc(Cl)cc1`, the Potency was inconclusive [cytotoxic, single point]. With `COC(=O)c1ccc(C23CC4(C2)[C@H](CN(Cc2ccc(C(F)(F)F)cc2)[C@@H]4c2ccccc2)C3c2ccc(Cl)nc2)cc1` (stereo partly specified) the “activity, negative = less viability” value was inactive: -6.72%. In the case of `CN(C)NC(=S)Nc1ccc(S(=O)(=O)N2CCCCC2)cc1`, the “activity, negative = less viability” value is reported as inactive: -16.1%. With `C(=C\c1ccccc1)/CN1CCN(C(CCc2ccccc2)c2nnnn2-c2ccc3c(c2)OCCO3)CC1` (stereo unspecified) the Potency was inconclusive [cytotoxic, single point]. In the case of `CCn1c(COc2cccc(C)c2C)nnc1SCC(=O)N1CCN(c2ccc(OC)cc2)CC1`, the “activity, negative = less viability” value is reported as inactive: -8.26%. In the case of `O[C@H]1CN(CC2CCCCC2)[C@@H](c2ccc(Cl)cc2)C[C@@H]1n1cc(C2CC2)nn1`, the Potency is reported as inconclusive [cytotoxic, single point]. With `CC(=O)Nc1cc2c3ccccc3n(C)c2cc1[N+](=O)[O-]` the activity, negative = less viability was inconclusive: -4.68% [cytotoxic]. With `COC(=O)N1c2ccccc2C=Cc2ccccc21` the Potency was inconclusive [cytotoxic, single point]. In the case of `Nc1nc(N)c2ncc(C(=O)CCc3ccccc3)nc2n1`, the “activity, negative = less viability” value is reported as inactive: -0.779%. For `Nc1nc(-c2ccccc2)cn1/N=C/c1ccccc1`, the Potency was inconclusive [cytotoxic, single point]. In the case of `CCOc1cc(NS(=O)(=O)c2ccccc2)c(OCC)cc1NC(=O)c1ccco1`, the “activity, negative = less viability” value is reported as inactive: 2.15%. With `COc1ccc(-c2csc(NC(C)c3nc4cc(C(=O)NCCCO)ccc4n3Cc3ccc(C)cc3)n2)cc1` (stereo unspecified) the Potency was inconclusive [cytotoxic, single point]. For `CC12CCC(=O)C=C1CCC1C2C(O)CC2(C)C1CCC2(O)C(=O)COC(=O)COCC(=O)O` (stereo unspecified), the Potency was inconclusive [rising, full curve, poor fit]. With `CC(=O)N1c2ccc(S(=O)(=O)NCC3CCC(C(=O)NC4CCCCC4)CC3)cc2CC1C` (stereo unspecified) the Potency was inconclusive [cytotoxic, single point]. With `COc1ccc(C(C)(C)C)cc1S(=O)(=O)NCC1CCCO1` (stereo unspecified) the Potency was inconclusive [rising, partial curve, poor fit]. With `Cc1ccccc1C(=O)Nc1ccc(N2CCCC2)cc1` the “activity, negative = less viability” value was inactive: -2.72%. In the case of `COc1cc(OC)c(OC)cc1/C=N/NC(=S)NCC1CCCO1` (stereo unspecified), the Potency is reported as inconclusive [cytotoxic, single point]. In the case of `NC(CSCc1ccccc1Cl)C(=O)O` (stereo unspecified), the “activity, negative = less viability” value is reported as inactive: 8.93%. In the case of `CCCC[n+]1c2ccccc2cc2ccccc21`, the Potency is reported as active: 23.1 µM. With `CC(C)(C)c1ccc(NC(=O)CSc2nnc(-c3n[nH]c4ccccc34)o2)cc1` the Potency was inconclusive [cytotoxic, single point]. For `CC(=O)Nc1ccc(-c2ccnc3c2CC(C)(C(=O)Nc2ccc(C(C)C)cc2)O3)cc1` (stereo unspecified), the Potency was inconclusive [cytotoxic, partial curve]. In the case of `O=C(NCCC(F)(F)F)C1Cc2c(-c3ccc(Cl)cc3)ccnc2O1` (stereo unspecified), the “activity, negative = less viability” value is reported as inactive: 13%. For `CCCCNC(=O)C1(C)CCCCCN1Cc1cccc2c(OC)cc(C(=O)OCC)cc12` (stereo unspecified), the Potency was inconclusive [cytotoxic, partial curve, poor fit]. In the case of `OC(COC(c1ccc(Cl)cc1)c1ccc(Cl)cc1)CN1CCc2ccccc2C1` (stereo unspecified), the Potency is reported as active: 20.6 µM. In the case of `O=C(Cc1cccs1)Nc1ccc(Cl)c(S(=O)(=O)N2CCOCC2)c1`, the Potency is reported as inconclusive [cytotoxic, single point]. With `O=C(Nc1ccc2c(c1)C(=O)N(c1ccccc1)C2=O)C1CCCO1` (stereo unspecified) the “activity, negative = less viability” value was inactive: 3.8%. For `Cc1ccc(NCCC(=O)c2ccc(Cl)c(Cl)c2)cc1`, the “activity, negative = less viability” value was inactive: -4.55%. For `Cc1ccc(S(=O)(=O)N(Cc2ccccc2)c2ccccc2C(=O)N2CCCCC2)cc1`, the Potency was inconclusive [cytotoxic, single point]. For `CCOc1ccccc1CN1CCN(Cc2cc3ccccc3[nH]2)CC1CCO` (stereo unspecified), the Potency was active: 23.1 µM. In the case of `C=CCOC(=O)c1ccccc1C(=O)OCC1CO1` (stereo unspecified), the “activity, negative = less viability” value is reported as inactive: -3.62%. In the case of `COc1cc([N+](=O)[O-])cc(/C=N/NC(=O)CSc2ccccn2)c1O`, the Potency is reported as inconclusive [cytotoxic, partial curve]. For `CCCCn1c(/N=C/c2ccccc2NS(=O)(=O)c2ccc(C)cc2)nc2ccccc21`, the “activity, negative = less viability” value was inactive: -18.6%. For `COc1c(Br)cc([N+](=O)[O-])c(OC)c1C(=O)NC(=O)Nc1nc(C)cc(C)n1`, the “activity, negative = less viability” value was inactive: 2.35%. For `COc1ccccc1N1CCN(S(=O)(=O)CCNC(=O)C23CC4CC(CC(C4)C2)C3)CC1`, the Potency was inconclusive [cytotoxic, single point]. In the case of `COc1ccc(N2CCN(c3ccnc4cc(Cl)ccc34)CC2)cc1`, the “activity, negative = less viability” value is reported as inactive: 1.25%. In the case of `Oc1ccc(CN2CCC(Cc3ccccc3)CC2)c2cccnc12`, the Potency is reported as inconclusive [cytotoxic, single point]. With `CC1(C)OC2C(CO)OC(n3cnc4c(=S)nc(N)[nH]c43)C2O1` (stereo unspecified) the Potency was inconclusive [cytotoxic, single point]. With `COc1ccc(N/C=C/C(=O)c2cc(OC)c(OC)c(OC)c2)cc1` the Potency was active: 1.16 µM. With `O=C(NCc1ccncc1)c1ccc(-c2ccc(F)c(F)c2)c2ccoc12` the activity, negative = less viability was inconclusive: -18.9% [cytotoxic]. In the case of `CN(C)c1cccc(C(=O)NC2CCCc3ccccc32)c1` (stereo unspecified), the Potency is reported as inconclusive [cytotoxic, single point]. With `NC(=O)c1ccsc1NC(=O)c1cc(=O)c2ccccc2o1` the Potency was inconclusive [rising, single point].
